According to the supplement of paper PMC3334620:
In all, about 33,000 sequences were measured (“E-score (-0.5 to 0.5)”: median about -0.035, highest 2% from about 0.34 on). The list shows a part of the results.

Each sequence was assayed against T1, Mot3 (UniProt P54785) (assay: PBM E-score (8-mer binding enrichment) (E-score (-0.5 to 0.5)); higher = stronger / more preferred TF binding; most listed sequences are background and not binding sites). Details: protein concentration: 200 nM; construct: GST-full length.
T1 sequence: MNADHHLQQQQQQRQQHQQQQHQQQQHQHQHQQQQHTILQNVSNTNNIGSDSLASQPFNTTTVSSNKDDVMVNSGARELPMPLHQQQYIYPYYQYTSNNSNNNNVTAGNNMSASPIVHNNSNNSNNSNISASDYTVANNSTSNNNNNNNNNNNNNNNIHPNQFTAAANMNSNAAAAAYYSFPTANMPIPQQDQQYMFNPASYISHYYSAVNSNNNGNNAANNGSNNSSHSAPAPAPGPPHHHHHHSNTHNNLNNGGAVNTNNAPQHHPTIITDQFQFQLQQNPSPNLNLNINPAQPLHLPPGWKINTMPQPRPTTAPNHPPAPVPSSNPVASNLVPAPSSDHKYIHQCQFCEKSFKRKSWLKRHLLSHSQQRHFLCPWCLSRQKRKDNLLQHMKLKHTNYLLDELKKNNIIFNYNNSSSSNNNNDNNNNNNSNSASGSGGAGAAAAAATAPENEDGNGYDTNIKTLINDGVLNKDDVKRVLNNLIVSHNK
In short: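 For each ungapped eight-base word taken together with its reverse complement, the Universal PBM Analysis Suite assigned an E-score. Binding data came from GST-tagged yeast transcription factors, applied at about 100-200 nM, on universal all-10-mer Agilent arrays made double-stranded by primer extension. Fluorescent anti-GST marked bound protein, and scans were normalised with masliner.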

Going from CGAATGGC to CAGGGACG, the “PBM E-score” value rises from -0.189 to 0.0493.

Compared with CTAAAGAG, CTAGACGC is lower in “PBM E-score” value: -0.121 for the first, -0.206 for the second.

Going from CATAGCAC to AACATGTG, the “PBM E-score” value rises from -0.0243 to 0.278.

Compared with CGGTGACA, CCCCGACG is lower in “PBM E-score” value: -0.144 for the first, -0.206 for the second.

First: CTAAACAG
Second: AACCCGCG
The “PBM E-score” value of the first is lower: -0.0477 for the first, 0.117 for the second.

Going from CCGTACCA to CGTTACCA, the “PBM E-score” value rises from -0.0244 to 0.0991.

Going from ATTACTTA to CTTATTTC, the “PBM E-score” value falls from 0.146 to 0.0522.

Compared with CCGGTTTA, AGGCCAGA is higher in “PBM E-score” value: -0.141 for the first, -0.0549 for the second.

Going from CATTTAAA to CCACCGGG, the “PBM E-score” value falls from 0.0821 to -0.331.

Going from GTCATAAC to CATCACTA, the “PBM E-score” value rises from 0.0307 to 0.0413.

Compared with GAATCATA, AAAAGTGC is lower in “PBM E-score” value: -0.0348 for the first, -0.0352 for the second.

Going from GCACCGAC to AGTTTTTG, the “PBM E-score” value rises from -0.0737 to 0.0757.

First: GATTTACA
Second: AGATAACG
The “PBM E-score” value of the first is higher: 0.332 for the first, 0.088 for the second.

First: GGATTAGA
Second: CACTACGA
The “PBM E-score” value of the first is lower: -0.13 for the first, 0.0203 for the second.

Going from GAAGCTGA to GAACGACA, the “PBM E-score” value rises from -0.00783 to 0.0296.

Going from GCCTCCCA to GGCAGGAC, the “PBM E-score” value falls from -0.0636 to -0.14.

Compared with CATAATGC, CACTGTAC is lower in “PBM E-score” value: -0.0264 for the first, -0.0818 for the second.

Compared with ACGTTGCT, GCGTGACA is higher in “PBM E-score” value: 0.0179 for the first, 0.0371 for the second.

First: CTGCTATA
Second: CCTAAGCA
The “PBM E-score” value of the first is higher: -0.0552 for the first, -0.12 for the second.

Compared with CATTCCCC, CGGTTTTA is lower in “PBM E-score” value: -0.157 for the first, -0.158 for the second.

Going from ACCATGTC to CAATCGAG, the “PBM E-score” value falls from 0.223 to -0.403.

Going from GCGCTGCC to GAAATGCA, the “PBM E-score” value rises from -0.186 to -0.0288.

Going from CGACGGCA to AAGCTCTA, the “PBM E-score” value rises from -0.155 to 0.0454.

Compared with ATCACGGG, CCGAATTC is higher in “PBM E-score” value: -0.25 for the first, -0.242 for the second.

Going from GGTAATTA to GACATGAC, the “PBM E-score” value falls from 0.217 to 0.175.

Going from GGAAGTAA to CGCTGGAA, the “PBM E-score” value falls from -0.0559 to -0.301.

First: GACATTCA
Second: CGCGCTGA
The “PBM E-score” value of the first is higher: 0.0236 for the first, -0.119 for the second.

First: AGCAGTCC
Second: CCGTATGA
The “PBM E-score” value of the first is lower: -0.206 for the first, -0.0739 for the second.

Compared with GTACACGA, TTACTGAA is lower in “PBM E-score” value: 0.327 for the first, 0.128 for the second.

Compared with ATAGATAC, CGCCTTAC is higher in “PBM E-score” value: 0.0299 for the first, 0.0872 for the second.

First: GAAAAGAC
Second: CAAAAGGG
The “PBM E-score” value of the first is higher: 0.00906 for the first, -0.0933 for the second.

First: TCTGCTCA
Second: GAAAAAAA
The “PBM E-score” value of the first is lower: -0.261 for the first, 0.114 for the second.

First: CCGGTTTC
Second: AGGCCCTG
The “PBM E-score” value of the first is lower: -0.155 for the first, 0.0149 for the second.

First: GACAAATC
Second: CTAAGACA
The “PBM E-score” value of the first is lower: -0.0753 for the first, 0.0823 for the second.

Compared with CCTGCGTA, AACTGTTA is lower in “PBM E-score” value: 0.304 for the first, 0.0765 for the second.

First: AACCGAGT
Second: CAAAGCTG
The “PBM E-score” value of the first is lower: -0.224 for the first, 0.0231 for the second.

First: AAGGTTAT
Second: GGCATACC
The “PBM E-score” value of the first is higher: 0.0647 for the first, -0.0991 for the second.

First: ATATGAGC
Second: CAATAAGC
The “PBM E-score” value of the first is lower: -0.232 for the first, -0.159 for the second.

First: AGTAGTAC
Second: GCATCGCC
The “PBM E-score” value of the first is higher: 0.188 for the first, -0.153 for the second.

Compared with GACCGAAC, ATGAGACA is lower in “PBM E-score” value: -0.0324 for the first, -0.0369 for the second.

Compared with AGTGCGTG, GAGTGGCC is lower in “PBM E-score” value: -0.0225 for the first, -0.293 for the second.

Going from AATGGTTC to ACACGTCG, the “PBM E-score” value rises from 0.182 to 0.233.

First: GGCAAAGA
Second: TATGCGCA
The “PBM E-score” value of the first is higher: 0.157 for the first, -0.18 for the second.
